Measured values from the supplement of paper PMC4967469.
pIC50: −log10 of the molar value. A lower IC50 marks a more sensitive line; a fit beyond the top or the lowest dose is shown as a bound at that dose. AUC, from the same fit, is the share of area under the viability curve across the 256-fold dose range; values near 1 show little effect. For some of these results: An inferred top dose was calculated from the reported fits.

Assays:
Assay in all cases: Viability of human cancer cell lines after 72 h of drug (GDSC screen)
[1] = compound: COc1cccc2c1C(=O)c1c(O)c3c(c(O)c1C2=O)C[C@@](O)(C(=O)CO)C[C@@H]3O[C@H]1C[C@H](N)[C@H](O)[C@H](C)O1 [Doxorubicin]; settings: top dose 1.024 µM
Description: (§1)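 Human cancer cell lines in 384-well plates, medium with 10% serum, drug for 72 h over a 256-fold dose range (nine 2-fold or five 4-fold steps up to the top dose). Adherent lines were fixed and stained with the nucleic acid dye Syto60, suspension lines read with resazurin; signal relative to control wells, capped at 0 and 100%. One two-parameter sigmoid per drug and line, fitted in a mixed model over all curves with the slope shared within a line.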

[2] = compound: C=CCNC1=C2C[C@@H](C)C[C@H](OC)[C@H](O)[C@@H](C)/C=C(\C)[C@H](OC(N)=O)[C@@H](OC)/C=C\C=C(/C)C(=O)NC(=CC1=O)C2=O [17-AAG]; settings: top dose 1 µM
Description: as §1

[3] = compound: O=C(c1ccc(C(=O)N2CCC(N3CCCC3)CC2)c(Nc2ccccc2)c1)N1CCC(N2CCCC2)CC1 [UNC1215]; settings: top dose 1 µM; top dose inferred
Description: as §1

[4] = compound: Cc1cnc(Nc2ccc(OCCN3CCCC3)cc2)nc1Nc1cccc(S(=O)(=O)NC(C)(C)C)c1 [TG101348]; settings: top dose 10.24 µM
Description: as §1

[5] = compound: COC(=O)CNC(=O)C(=O)OC [Dimethyloxalylglycine]; settings: top dose 4000 µM; top dose inferred
Description: as §1

[6] = compound: CS(=O)(=O)c1ccc(C(=O)Nc2ccc(Cl)c(-c3ccccn3)c2)c(Cl)c1 [Vismodegib]; settings: top dose 10 µM; top dose inferred
Description: as §1

[7] = compound: COc1cccc2cc(-c3nc([C@H]4CC[C@H](C(=O)O)CC4)n4ncnc(N)c34)[nH]c12 [OSI-027]; settings: top dose 20 µM
Description: as §1

[8] = compound: Cc1cnc(Nc2ccc(F)cc2Cl)nc1-c1c[nH]c(C(=O)N[C@H](CO)c2cccc(Cl)c2)c1 [VX-11e]; settings: top dose 5.12 µM; top dose inferred
Description: as §1

[9] = compound: CCc1cc(-c2n[nH]c(C)c2-c2ccc3c(c2)OCCO3)c(O)cc1O [CCT018159]; settings: top dose 10 µM; top dose inferred
Description: as §1

[10] = compound: CN(C)Cc1cccc(N=C(c2ccccc2)c2c(O)[nH]c3cc(C(=O)N(C)C)ccc23)c1 [BIX02189]; settings: top dose 20 µM; top dose inferred
Description: as §1

Cell Line | AUC [1] | AUC [2] | pIC50 [2] | AUC [3] | pIC50 [3] | AUC [4] | pIC50 [4] | AUC [5] | pIC50 [5] | AUC [6] | pIC50 [6] | AUC [7] | pIC50 [7] | AUC [8] | pIC50 [8] | AUC [9] | pIC50 [9] | AUC [10] | pIC50 [10] | pIC50 [1]
KARPAS-45 (lymphoblastic leukaemia, suspension) | 0.907 | 0.918 | < 6.00 | 0.986 | < 6.00 | 0.577 | 6.00 | 0.668 | 3.17 | 0.972 | < 5.00 | 0.465 | 5.99 | 0.953 | < 5.29 | 0.87 | 5.17 | 0.705 | 5.38 | –
NCI-H2172 (non-small cell lung carcinoma, adherent) | 0.744 | 0.733 | 6.43 | 0.981 | < 6.00 | 0.912 | < 4.99 | 0.519 | 3.54 | 0.982 | < 5.00 | 0.819 | 4.77 | 0.965 | < 5.29 | 0.967 | < 5.00 | 0.946 | < 4.70 | 6.37
NCI-H1836 (small cell lung carcinoma, suspension) | 0.9 | 0.987 | < 6.00 | 0.986 | < 6.00 | 0.918 | < 4.99 | 0.628 | 3.23 | 0.988 | < 5.00 | 0.497 | 5.91 | 0.988 | < 5.29 | 0.985 | < 5.00 | 0.972 | < 4.70 | < 5.99
NCI-H3122 (lung adenocarcinoma, adherent) | 0.401 | 0.295 | 7.79 | 0.985 | < 6.00 | 0.922 | < 4.99 | 0.548 | 3.47 | 0.987 | < 5.00 | 0.522 | 5.84 | 0.886 | < 5.29 | 0.674 | 5.71 | 0.974 | < 4.70 | 7.47
CCF-STTG1 (glioma, adherent) | 0.372 | 0.511 | 7.18 | 0.969 | < 6.00 | 0.652 | 5.77 | 0.873 | 2.41 | 0.988 | < 5.00 | 0.568 | 5.72 | 0.986 | < 5.29 | 0.969 | < 5.00 | 0.941 | < 4.70 | 7.55
RPMI-6666 (Hodgkin lymphoma, suspension) | 0.51 | 0.923 | < 6.00 | 0.974 | < 6.00 | 0.482 | 6.25 | 0.469 | 3.69 | 0.958 | < 5.00 | 0.235 | 6.75 | 0.862 | < 5.29 | 0.918 | < 5.00 | 0.775 | 5.02 | 7.16
647-V (bladder, adherent) | 0.39 | 0.972 | < 6.00 | 0.986 | < 6.00 | 0.951 | < 4.99 | 0.342 | 4.04 | 0.987 | < 5.00 | 0.456 | 6.02 | 0.98 | < 5.29 | 0.953 | < 5.00 | 0.986 | < 4.70 | 7.50
P12-ICHIKAWA (T-cell lymphoblastic leukaemia, suspension) | 0.454 | 0.994 | < 6.00 | 0.994 | < 6.00 | 0.864 | 5.24 | 0.27 | 4.18 | 0.952 | < 5.00 | 0.493 | 5.92 | 0.983 | < 5.29 | 0.991 | < 5.00 | 0.926 | 4.71 | –
SK-ES-1 (Ewing sarcoma, semi-adherent) | 0.451 | 0.899 | < 6.00 | 0.981 | < 6.00 | 0.655 | 5.75 | 0.713 | 2.98 | 0.977 | < 5.00 | 0.471 | 5.98 | 0.965 | < 5.29 | 0.912 | < 5.00 | 0.915 | < 4.70 | 7.33
CHP-126 (neuroblastoma, suspension) | 0.51 | 0.925 | < 6.00 | 0.978 | < 6.00 | 0.707 | 5.60 | 0.726 | 2.95 | 0.984 | < 5.00 | 0.887 | < 4.70 | 0.987 | < 5.29 | 0.872 | < 5.00 | 0.969 | < 4.70 | 7.17
COLO-680N (oesophagus, adherent) | 0.441 | 0.807 | 6.20 | 0.985 | < 6.00 | 0.908 | < 4.99 | 0.503 | 3.59 | 0.981 | < 5.00 | 0.884 | < 4.70 | 0.985 | < 5.29 | 0.925 | < 5.00 | 0.982 | < 4.70 | 7.37
QIMR-WIL (acute myeloid leukaemia, suspension) | 0.317 | 0.928 | < 6.00 | 0.985 | < 6.00 | 0.567 | 6.01 | 0.564 | 3.43 | 0.972 | < 5.00 | 0.141 | 7.00 | 0.955 | < 5.29 | 0.897 | < 5.00 | 0.866 | 4.77 | 7.70
